According to a compilation of properties of binary mixtures (doi:10.1016/j.molliq.2022.119758):
Some of these densities may be calculated back from excess volumes.

Assay: xn = mol fraction of the nth substance listed
Details: 101 kPa

CCC[N+]1(C)CCCC1.O=S(=O)([N-]S(=O)(=O)C(F)(F)F)C(F)(F)F + O=C1CCCO1
mass density [kg/m3]
Details | 278.15 K | 288.15 K | 298.15 K | 308.15 K | 318.15 K | 328.15 K | 338.15 K | 348.15 K | 358.15 K
x1 = 0.0657 | – | 1197 | 1187.2 | 1177.5 | 1167.8 | 1158.2 | – | 1138.8 | 1129.2
x1 = 0.1741 | 1277.1 | – | 1257.8 | 1248.1 | 1238.6 | – | – | – | –
x1 = 0.3874 | 1345.4 | 1335.9 | 1326.3 | 1316.9 | 1307.5 | 1298.9 | 1288.9 | 1279.6 | 1270.4
x1 = 1 | – | 1436.5 | 1427.5 | 1418.5 | 1409.6 | 1400.7 | 1391.9 | 1382.5 | –

O=C1CCCO1 + CCC[N+]1(C)CCCC1.O=S(=O)([N-]S(=O)(=O)C(F)(F)F)C(F)(F)F
x2 = 0
Details | mass density [kg/m3]
278.15 K | 1144.7
298.15 K | 1125
308.15 K | 1115.2
328.15 K | 1095.5
338.15 K | 1085.6
358.15 K | 1065.7
